Source: the DeepSol protein solubility set

Assay: soluble on expression in E. coli; label from the status in PepcDB or PDB records

Row | Sequence | soluble on expression in E. coli
1 | MALSMPLNGLKEEDKEPLIELFVKAGSDGESIGNCPFSQRLFMILWLKGVVFSVTTVDLKRKPADLQNLAPGTHPPFITFNSEVKTDVNKIEEFLEEVLCPPKYLKLSPKHPESNTAGMDIFAKFSAYIKNSRPEANEALERGLLKTLQKLDEYLNSPLPDEIDENSMEDIKFSTRKFLDGNEMTLADCNLLPKLHIVKVVAKKYRNFDIPKEMTGIWRYLTNAYSRDEFTNTCPSDKEVEIAYSDVAKRLPSKVPKGEFQHTGGRY | soluble
2 | MIWQGRSRRKPSGGFYRKARKKRKYELGREQVETLIGERKVKKIRVRGGNYKLKLFADKYANVYDPKQGKVVRVEIESVVENPAHVHYARRNVITKGAIIATSIGKARVTNRPSQEGVVNAVLIELEHHHHHH | soluble
